# According to paper PMC6777367:
# Chains of the proteins cited; added tags and fusions are not shown. Lines headed by an entry give the natural chain unless they say otherwise; changes in a name come on top.
# UniProt Q8NFJ9: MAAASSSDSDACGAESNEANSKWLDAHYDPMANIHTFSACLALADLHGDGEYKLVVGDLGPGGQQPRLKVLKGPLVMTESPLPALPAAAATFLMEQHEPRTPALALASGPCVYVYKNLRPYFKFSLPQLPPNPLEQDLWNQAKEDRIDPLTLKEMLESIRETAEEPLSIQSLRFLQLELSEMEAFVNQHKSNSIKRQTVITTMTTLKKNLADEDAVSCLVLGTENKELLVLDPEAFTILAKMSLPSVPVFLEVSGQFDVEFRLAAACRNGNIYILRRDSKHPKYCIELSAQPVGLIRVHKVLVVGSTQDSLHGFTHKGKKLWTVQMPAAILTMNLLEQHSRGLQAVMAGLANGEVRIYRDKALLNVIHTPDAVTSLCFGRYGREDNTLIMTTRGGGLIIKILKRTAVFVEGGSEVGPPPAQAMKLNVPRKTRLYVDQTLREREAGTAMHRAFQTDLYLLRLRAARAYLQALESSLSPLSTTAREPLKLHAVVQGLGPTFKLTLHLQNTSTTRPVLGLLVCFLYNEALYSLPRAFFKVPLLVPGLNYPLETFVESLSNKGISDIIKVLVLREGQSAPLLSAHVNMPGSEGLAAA
# Like-named read-outs stand apart in the source and are kept apart here. Results are given in words; binding and its absence hold for the method and conditions named. Binding seen in cells or lysates may run through a third protein. Some binding calls cover weakened binding; strength is not graded here. For some assays here: Where a sequence is shown, tags or fusion partners need not be part of it.
# T1: EGFP-IFT57 (UniProt Q9NWB7)
# T1 sequence: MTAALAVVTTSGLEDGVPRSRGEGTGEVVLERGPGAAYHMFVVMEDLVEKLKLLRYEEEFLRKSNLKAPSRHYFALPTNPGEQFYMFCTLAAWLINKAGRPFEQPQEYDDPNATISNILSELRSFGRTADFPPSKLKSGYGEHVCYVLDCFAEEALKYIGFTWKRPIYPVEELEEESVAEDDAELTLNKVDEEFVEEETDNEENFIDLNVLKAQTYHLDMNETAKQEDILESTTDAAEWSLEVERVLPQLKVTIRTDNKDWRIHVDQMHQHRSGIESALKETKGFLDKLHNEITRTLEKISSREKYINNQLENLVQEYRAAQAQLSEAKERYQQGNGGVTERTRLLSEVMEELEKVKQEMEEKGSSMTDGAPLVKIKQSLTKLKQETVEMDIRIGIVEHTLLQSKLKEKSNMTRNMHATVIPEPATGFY
# T2: EGFP-IFT88 (UniProt Q13099)
# T2 sequence: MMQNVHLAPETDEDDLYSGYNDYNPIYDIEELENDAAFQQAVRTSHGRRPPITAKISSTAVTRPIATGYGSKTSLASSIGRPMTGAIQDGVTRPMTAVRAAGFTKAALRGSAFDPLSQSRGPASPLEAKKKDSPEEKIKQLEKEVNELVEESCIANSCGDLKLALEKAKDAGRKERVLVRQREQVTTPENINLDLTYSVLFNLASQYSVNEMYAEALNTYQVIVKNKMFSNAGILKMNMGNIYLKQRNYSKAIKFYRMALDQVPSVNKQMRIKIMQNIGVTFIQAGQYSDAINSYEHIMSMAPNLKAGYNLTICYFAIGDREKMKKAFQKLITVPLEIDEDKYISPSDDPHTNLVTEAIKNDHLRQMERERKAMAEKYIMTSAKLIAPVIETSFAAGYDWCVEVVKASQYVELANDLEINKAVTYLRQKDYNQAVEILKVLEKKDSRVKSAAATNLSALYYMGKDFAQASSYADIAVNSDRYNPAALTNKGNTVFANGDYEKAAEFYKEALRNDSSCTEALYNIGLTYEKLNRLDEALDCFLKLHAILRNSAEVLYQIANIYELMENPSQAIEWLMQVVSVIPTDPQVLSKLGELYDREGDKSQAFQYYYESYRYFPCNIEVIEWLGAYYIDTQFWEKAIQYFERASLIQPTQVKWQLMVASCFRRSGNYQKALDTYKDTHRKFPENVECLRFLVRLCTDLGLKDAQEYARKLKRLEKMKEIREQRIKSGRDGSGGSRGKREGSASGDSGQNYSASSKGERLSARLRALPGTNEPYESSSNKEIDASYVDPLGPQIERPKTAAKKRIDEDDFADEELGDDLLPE
# T3: EGFP-IFT52 (UniProt Q9Y366)
# T3 sequence: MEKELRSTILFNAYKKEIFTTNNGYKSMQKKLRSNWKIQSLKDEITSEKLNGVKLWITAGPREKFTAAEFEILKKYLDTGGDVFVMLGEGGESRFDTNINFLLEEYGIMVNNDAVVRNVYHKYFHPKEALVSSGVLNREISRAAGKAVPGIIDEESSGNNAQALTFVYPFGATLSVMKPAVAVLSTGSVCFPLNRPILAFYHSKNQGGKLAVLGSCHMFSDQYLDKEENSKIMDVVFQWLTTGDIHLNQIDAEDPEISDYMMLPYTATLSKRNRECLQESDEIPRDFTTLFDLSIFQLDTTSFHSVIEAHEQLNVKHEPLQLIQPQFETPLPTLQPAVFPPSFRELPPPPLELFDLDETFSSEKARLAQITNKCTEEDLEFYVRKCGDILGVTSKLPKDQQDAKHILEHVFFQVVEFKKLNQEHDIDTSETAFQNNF
# T4: EGFP-IFT38(WT) (human) (UniProt Q96AJ1)
# T4 sequence: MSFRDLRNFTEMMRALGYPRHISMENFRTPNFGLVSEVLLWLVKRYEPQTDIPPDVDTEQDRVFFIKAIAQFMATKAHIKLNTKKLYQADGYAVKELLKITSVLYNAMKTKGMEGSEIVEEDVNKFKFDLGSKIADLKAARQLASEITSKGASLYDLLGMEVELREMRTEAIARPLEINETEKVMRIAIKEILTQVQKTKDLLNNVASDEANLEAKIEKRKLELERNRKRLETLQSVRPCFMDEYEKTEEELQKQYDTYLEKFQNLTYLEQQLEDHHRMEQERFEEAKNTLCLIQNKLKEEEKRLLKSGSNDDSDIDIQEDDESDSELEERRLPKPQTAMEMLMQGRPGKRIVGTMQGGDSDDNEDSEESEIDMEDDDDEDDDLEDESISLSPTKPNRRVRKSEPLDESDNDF
# T5: EGFP-IFT38(ΔC) (human) (UniProt Q96AJ1)
# T5 sequence: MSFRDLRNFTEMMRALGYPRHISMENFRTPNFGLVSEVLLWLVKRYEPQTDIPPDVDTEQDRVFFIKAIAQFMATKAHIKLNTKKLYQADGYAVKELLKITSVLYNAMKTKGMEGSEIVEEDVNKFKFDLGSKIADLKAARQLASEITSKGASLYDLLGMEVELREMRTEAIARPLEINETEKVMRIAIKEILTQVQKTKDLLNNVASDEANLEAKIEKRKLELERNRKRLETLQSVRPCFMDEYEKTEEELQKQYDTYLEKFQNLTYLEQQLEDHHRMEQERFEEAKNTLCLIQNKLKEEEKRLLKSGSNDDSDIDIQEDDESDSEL
# T6: EGFP-IFT38(ΔN) (human) (UniProt Q96AJ1)
# T6 sequence: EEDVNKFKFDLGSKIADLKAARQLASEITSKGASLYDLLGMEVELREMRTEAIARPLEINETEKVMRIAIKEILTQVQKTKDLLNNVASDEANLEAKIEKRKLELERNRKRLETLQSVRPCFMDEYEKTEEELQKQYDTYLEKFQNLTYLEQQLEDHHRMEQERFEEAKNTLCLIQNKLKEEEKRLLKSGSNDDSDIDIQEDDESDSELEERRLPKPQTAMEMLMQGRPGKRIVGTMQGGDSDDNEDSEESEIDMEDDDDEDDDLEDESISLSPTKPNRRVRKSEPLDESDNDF
# B1: mChe-fused IFT80 (protein, UniProt Q9P2H3 1-777)
# chain: MRLKISLLKEPKHQELVSCVGWTTAEELYSCSDDHQIVKWNLLTSETTQIVKLPDDIYPIDFHWFPKSLGVKKQTQAESFVLTSSDGKFHLISKLGRVEKSVEAHCGAVLAGRWNYEGTALVTVGEDGQIKIWSKTGMLRSTLAQQGTPVYSVAWGPDSEKVLYTAGKQLIIKPLQPNAKVLQWKAHDGIILKVDWNSVNDLILSAGEDCKYKVWDSYGRPLYNSQPHEHPITSVAWAPDGELFAVGSFHTLRLCDKTGWSYALEKPNTGSIFNIAWSIDGTQIAGACGNGHVVFAHVVEQHWEWKNFQVTLTKRRAMQVRNVLNDAVDLLEFRDRVIKASLNYAHLVVSTSLQCYVFSTKNWNTPIIFDLKEGTVSLILQAERHFLLVDGSSIYLYSYEGRFISSPKFPGMRTDILNAQTVSLSNDTIAIRDKADEKIIFLFEASTGKPLGDGKFLSHKNEILEIALDQKGLTNDRKIAFIDKNRDLCITSVKRFGKEEQIIKLGTMVHTLAWNDTCNILCGLQDTRFIVWYYPNTVYVDRDILPKTLYERDASEFSKNPHIVSFVGNQVTIRRADGSLVHISITPYPAILHEYVSSSKWEDAVRLCRFVKEQTMWACLAAMAVANRDMTTAEIAYAAIGEIDKVQYINSIKNLPSKESKMAHILLFSGNIQEAEIVLLQAGLVYQAIQININLYNWERALELAVKYKTHVDTVLAYRQKFLETFGKQETNKRYLHYAEGLQIDWEKIKAKIEMEITKEREQSSSSQSSKSIGLKP
# Tests used:
# Assay in all cases: co-IP; visible immunoprecipitation (VIP) assay: lysates of co-transfected HEK293T cells (HMDEKN buffer: 10 mM HEPES pH 7.4, 5 mM MgSO4, 1 mM DTT, 0.5 mM EDTA, 25 mM KCl, 0.05% NP-40) precipitated by the EGFP fusion with GST-tagged anti-GFP nanobody on glutathione-Sepharose 4B beads; red fluorescence on the beads seen by microscopy
# EGFP-IFT57 = target: T1, EGFP-IFT57
# [1] = target: EGFP-fused components of the IFT-B-connecting tetramer, IFT38/IFT52/IFT57/IFT88 (co-expressed) (UniProt Q96AJ1)
# EGFP-IFT88 = target: T2, EGFP-IFT88
# EGFP-IFT52 = target: T3, EGFP-IFT52
# EGFP-IFT38(WT) (human) [2] = target: T4, EGFP-IFT38(WT) (human)
# EGFP-IFT38(ΔC) (human) = target: T5, EGFP-IFT38(ΔC) (human)
# EGFP-IFT38(WT) (human) [3] = target: T4, EGFP-IFT38(WT) (human); remark: listed apart in the source
# EGFP-IFT38(ΔN) (human) = target: T6, EGFP-IFT38(ΔN) (human)
Molecule,binding (EGFP-IFT57),binding [1],binding (EGFP-IFT88),binding (EGFP-IFT52),binding (EGFP-IFT38(WT) (human) [2]),binding (EGFP-IFT38(ΔC) (human)),binding (EGFP-IFT38(WT) (human) [3]),binding (EGFP-IFT38(ΔN) (human))
all the BBSome subunits plus ARL6 fused to tRFP (co-expressed) (from UniProt Q8NFJ9 1-593; Q9BXC9 1-721; Q96RK4 1-519; Q8N3I7 1-341; Q8IWZ6 1-715; Q8TAM2 1-541; Q3SYG4 1-887; A8MTZ0 1-92; Q9H0F7 1-186) (complex),no binding,binds weakly,no binding,no binding,binds,,,
B1,,,,,,binds,binds,no binding
